Measurements: patent US9580749B2, “Dyes and labeled molecules” (Biotium, Inc., priority 2005, dated 2017)

System: UBC fragment (SEQ ID NO: 8) from human genomic DNA
Experiment: qPCR titration of human genomic DNA (UBC fragment)
Settings: 10^5 down to 10 copies of human DNA; AOAO-12 A495=0.1, SYBR Green I A495=0.025
Method: Amplifications of a UBC fragment (SEQ ID NO: 8) from human genomic DNA were performed under conditions similar to those set forth in Example 45, with either SYBR Green I (final absorption peak at 495 nm corresponds to an optical density of 0.025, or A495=0.025) or AOAO-12 (final A495=0.1), except that (1) different forward and reverse primers sets (5′-ACTGGTAAGACCATCACC-3′ (SEQ ID NO: 9) and 5′-GCAATGAAATTTGTTGAA-3′ (SEQ ID NO: 10)) were used, and (2) a series of 10-fold dilutions of human DNA served as the templates.

CN(C)c1ccc2cc3ccc(N(C)C)cc3[n+](CCCCCC(=O)NCCOCCNC(=O)CCCCC[n+]3c4cc(N(C)C)ccc4cc4ccc(N(C)C)cc43)c2c1 [AOAO-12]
signal strength in qPCR: superior to SYBR Green I in signal strength
